From PMC7819943, “Rice protein-binding microarrays: a tool to detect cis-acting elements near promoter regions in rice”
This is one part of the list.

What follows are sequences tested against T1, OsWOX13 (Oryza sativa, UniProt Q5QMM3 1-267) (assay: protein-binding microarray (RPBM); PBS, 2% BSA, 51.3 ng/ul salmon testes DNA, 50 uM zinc acetate, 200 nM TF, 25 C, 1 h; high values mean tight binding). Conditions: protein: recombinant; tags: N-terminal polyhistidine and DsRed monomer fusion (pET32a); label: CyDye5-dUTP incorporated in the synthesized complementary strand; 3' TTTTT single-stranded linker to array surface; dsDNA, one strand shown.
T1 sequence: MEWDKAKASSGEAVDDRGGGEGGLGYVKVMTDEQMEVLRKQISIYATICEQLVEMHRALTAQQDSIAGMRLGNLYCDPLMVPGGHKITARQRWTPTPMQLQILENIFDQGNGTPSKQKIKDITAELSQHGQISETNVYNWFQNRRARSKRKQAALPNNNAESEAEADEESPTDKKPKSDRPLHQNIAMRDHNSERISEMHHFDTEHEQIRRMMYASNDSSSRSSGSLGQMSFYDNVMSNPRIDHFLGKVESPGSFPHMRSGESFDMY
Summary of the method: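 Per-feature fluorescence intensity (arbitrary units), read on an Axon 4000B scanner, is the binding signal. Transcription factors carrying an N-terminal polyhistidine tag and DsRed fusion were expressed in E. coli BL21-CodonPlus and purified on Ni–NTA. A custom Agilent array, made double-stranded by primer extension with Cy5-dUTP and blocked with 2% BSA, was incubated with 200 nM protein in PBS, 2% BSA, salmon testes DNA and 50 µM zinc acetate at 25 °C for 1 h and then washed.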

Sequence	binding signal
TCAGTTAATTAGTAGTTGCTTGACTGCTGCTAAGCATCCCCGGAGTCACCTAGTGCAG	48300 fluorescence intensity (a.u.)
AATTTTACATTAAATTGCACAGTCAAAAGCTGCATGGTTACGGAGTCACCTAGTGCAG	3820 fluorescence intensity (a.u.)
TTATTATTTATTAGATAATGGATAGAAATCTACAAGTGGACGGAGTCACCTAGTGCAG	6060 fluorescence intensity (a.u.)
GTAAATACACTAAAATTACATATGTAATTTAAGGACTTACCGGAGTCACCTAGTGCAG	12300 fluorescence intensity (a.u.)
CCAGACAATGCTTTGATTATCCATTGCAAGCATAACTAGTCGGAGTCACCTAGTGCAG	6770 fluorescence intensity (a.u.)
AATATCAATTTGTTGCAACATTAGCGGCATGTTTTAGTTTCGGAGTCACCTAGTGCAG	4170 fluorescence intensity (a.u.)
GTCCCATAATAATTAGTTCTGGATTGTTTAGCCTATACTACGGAGTCACCTAGTGCAG	17700 fluorescence intensity (a.u.)
TCGTTTCAATTTCAATTAAACTTCTAATTTTGATGTGAACCGGAGTCACCTAGTGCAG	25100 fluorescence intensity (a.u.)
TAGAGATTTAATTGTAACAAATAGGGCGCTGTATTCGGATCGGAGTCACCTAGTGCAG	15100 fluorescence intensity (a.u.)
ATGCACTAATTATATGCTATGCACACTGTTTAAGCATCATCGGAGTCACCTAGTGCAG	12000 fluorescence intensity (a.u.)
TGATAATTTATATTGTATTTCATTGTAGCCTATGGCTGTGCGGAGTCACCTAGTGCAG	24400 fluorescence intensity (a.u.)
GGGACTAACTTCTCAATCTAACTCCAGAAGCAGAGTTTGGCGGAGTCACCTAGTGCAG	8000 fluorescence intensity (a.u.)
CCTCAACAAAATTTACAAATTTAATATCAGGATCAGGGAGCGGAGTCACCTAGTGCAG	6520 fluorescence intensity (a.u.)
TAATCTTGAATTATTGATTTATTTATGGCTTCAGCTTTCACGGAGTCACCTAGTGCAG	7480 fluorescence intensity (a.u.)
ATCTGATTTTATATTCTTATATTTTAGGATGGAGGGAGTACGGAGTCACCTAGTGCAG	12900 fluorescence intensity (a.u.)
TAAAATTTGATATTTTAGTGGTAATCTGAACGGGTCCTCGCGGAGTCACCTAGTGCAG	4810 fluorescence intensity (a.u.)
TCTAAATTTTCATGACATGGTACCATACTACAAATCCATCCGGAGTCACCTAGTGCAG	9500 fluorescence intensity (a.u.)
CGCCTTTCCATCATCATTTACGCCCAACCCCAACACATGTCGGAGTCACCTAGTGCAG	3750 fluorescence intensity (a.u.)
AGTTACATGCAAATTATAGTGTAATTATATATAAGTTACACGGAGTCACCTAGTGCAG	8130 fluorescence intensity (a.u.)
AGAAAACCAATTACACAATTTGTATGTAAATTATAAGATGCGGAGTCACCTAGTGCAG	4570 fluorescence intensity (a.u.)
GTTATATTGACAGCAAACATTATGGCCAGCTTGGTCTCACCGGAGTCACCTAGTGCAG	30500 fluorescence intensity (a.u.)

Sequence	binding signal
TATGTTGACAAATTTGAGGCGGTTTGTATCTTTCACTTTCCGGAGTCACCTAGTGCAG	3840 fluorescence intensity (a.u.)
CACATTAAATATTTAGACACTAATTATAAATATTAAATATCGGAGTCACCTAGTGCAG	3270 fluorescence intensity (a.u.)
TAATTAATTAAGTTTTAATTATTACAAACTTGAGAAATATCGGAGTCACCTAGTGCAG	23300 fluorescence intensity (a.u.)
TGGCGTGATTTGATTAATAGCGGAAAGAGATTCCACATTCCGGAGTCACCTAGTGCAG	26400 fluorescence intensity (a.u.)
AATTGAATTGAAACTATTGATGAATGAATTCACCAGCCAGCGGAGTCACCTAGTGCAG	16900 fluorescence intensity (a.u.)
ATGTTAAATGACATAGATGAATAAATTTAGTTACATGTGTCGGAGTCACCTAGTGCAG	14500 fluorescence intensity (a.u.)
CAAAATTGGCTCCTCACCCTTGTGCAGATGCAGCCTTCTTCGGAGTCACCTAGTGCAG	13700 fluorescence intensity (a.u.)
AAAATATAATTAGAACAATAATGATGATACGTATATATTGCGGAGTCACCTAGTGCAG	18700 fluorescence intensity (a.u.)
ATATAAAATTGATGTTATTAGATGTTTTAAATAATATCTACGGAGTCACCTAGTGCAG	12300 fluorescence intensity (a.u.)
CTCGAGGTCTTGATTAGCTTGTACAGTTTGTCCTCGAGCTCGGAGTCACCTAGTGCAG	7820 fluorescence intensity (a.u.)
ATATATGGTTAACTGTAATCAGGACCTACCCTGACCAGATCGGAGTCACCTAGTGCAG	4980 fluorescence intensity (a.u.)
GCAGTCAATTTTCACCACCAAACTCAACTGGCACCATCATCGGAGTCACCTAGTGCAG	3560 fluorescence intensity (a.u.)
ATAGCTTTGATTACTATTTCTATTATAATATATATAGAAACGGAGTCACCTAGTGCAG	7780 fluorescence intensity (a.u.)
TGTTAATTTGTGCTTCTGGGGTCCTTGTTTATGTATGGCCCGGAGTCACCTAGTGCAG	28500 fluorescence intensity (a.u.)
GATACTCCAAATGATTTTAAATGGAAAAGTGATAAACTACCGGAGTCACCTAGTGCAG	3210 fluorescence intensity (a.u.)
TATATCCAATTCAAATTTTAATTTGAATTCAAATAGTTTCCGGAGTCACCTAGTGCAG	3460 fluorescence intensity (a.u.)
ATTCGAGACAAGATCAATTAATTGCAAGAATGATCCATCACGGAGTCACCTAGTGCAG	13800 fluorescence intensity (a.u.)
GGTTGAGGGTGATGATTAGTAAGATACTGGGGATGCTCGACGGAGTCACCTAGTGCAG	9270 fluorescence intensity (a.u.)
CTACCAAATAATTGGCAATTTAAATAGTACTTTGTAGATGCGGAGTCACCTAGTGCAG	38400 fluorescence intensity (a.u.)
ATCTGATTGTCGGATGATCGTGGGTCAGTCTTCTATCAAGCGGAGTCACCTAGTGCAG	41400 fluorescence intensity (a.u.)
ATAGCTAATTAAGACCGGTTAATTTTGGGCTACAATGACTCGGAGTCACCTAGTGCAG	37600 fluorescence intensity (a.u.)

Sequence	binding signal
TTAATTACTTCTTCAAGTAATTACTATTTATATTGGACTGCGGAGTCACCTAGTGCAG	13200 fluorescence intensity (a.u.)
TCAATTTATATTGGTTTTAATAATTGAAAGGACGTGATATCGGAGTCACCTAGTGCAG	8780 fluorescence intensity (a.u.)
GAGGCGCATTCAATCATGAGAAGGAAAAGGAGGGACTCCACGGAGTCACCTAGTGCAG	3350 fluorescence intensity (a.u.)
AGTACTAATTACTCGAGACGCATACTAATAGCCGTATAGACGGAGTCACCTAGTGCAG	15500 fluorescence intensity (a.u.)
GCTTTTGATAGATGTCTAAGAAGCAAATAACTTAGTCTTTCGGAGTCACCTAGTGCAG	12200 fluorescence intensity (a.u.)
AATAAATTTAAAATTGCAATCGATATTAGCAAAATCCTATCGGAGTCACCTAGTGCAG	20700 fluorescence intensity (a.u.)
TTGCATGTTTGTGGATTGATACATTAGATATTGATCTATCCGGAGTCACCTAGTGCAG	3540 fluorescence intensity (a.u.)
ACACTGGTGATTGGTTTGAATGCTTGCTCACGAGTTGGGTCGGAGTCACCTAGTGCAG	45200 fluorescence intensity (a.u.)
TGACTGATCTAATTACTGAATGTTTTATGAATTTCTGCAGCGGAGTCACCTAGTGCAG	13600 fluorescence intensity (a.u.)
ATGATTTGACGCACATCCATCCACTCAGGAACATCGAATTCGGAGTCACCTAGTGCAG	15000 fluorescence intensity (a.u.)
TCCCTGATTAGAATTCCATTCCTTTAACAAATCAGCATTCCGGAGTCACCTAGTGCAG	37300 fluorescence intensity (a.u.)
CTAGGTAACTAAATTAATCTTCTTATCATTTTGGAATTTACGGAGTCACCTAGTGCAG	3430 fluorescence intensity (a.u.)
TAAAATTTGAGTAAATTTCACAAAACAACAGGTATTCTGACGGAGTCACCTAGTGCAG	4940 fluorescence intensity (a.u.)
CGTGATTAATGTTGGATGCTATCTGCTATTTATACCTGCACGGAGTCACCTAGTGCAG	43200 fluorescence intensity (a.u.)
CGTTATTAAGGGTAAATTATAAATTTACTAATATAATGATCGGAGTCACCTAGTGCAG	4480 fluorescence intensity (a.u.)
CATCTCAGTGCCGATTGCTTGATTAGCCCTAGCGACACGGCGGAGTCACCTAGTGCAG	4390 fluorescence intensity (a.u.)
TTGAACAAAATTAACAATATCGATTAATTCTGTATATGCACGGAGTCACCTAGTGCAG	9400 fluorescence intensity (a.u.)
CCAAGAGTAATTGTATTTATCCGTGAGATAAATTATAGGGCGGAGTCACCTAGTGCAG	7450 fluorescence intensity (a.u.)
TTACATGTTAAATAAATTTTACTCCCAATTAGCTACGCGACGGAGTCACCTAGTGCAG	7120 fluorescence intensity (a.u.)
TATAATGTGTCCTGACTGACTCGATAACTTATGGTGGTAGCGGAGTCACCTAGTGCAG	14800 fluorescence intensity (a.u.)
CTACTAATTTCACAAACGTGGGCCCGGTCCATCCATCGTACGGAGTCACCTAGTGCAG	6960 fluorescence intensity (a.u.)

Sequence	binding signal
ATACAATGATATATCAAATTTCAACCGTTTTCCCAAAGCTCGGAGTCACCTAGTGCAG	3550 fluorescence intensity (a.u.)
ATATAACGGAATTATTTAAAGTTGACACCAATAGAGGACTCGGAGTCACCTAGTGCAG	5960 fluorescence intensity (a.u.)
AGATTAAATTAGAGGCCCATAACCGAGCGGCCCAATCATGCGGAGTCACCTAGTGCAG	12800 fluorescence intensity (a.u.)
ATTAAAATCAACTCCTGATTATAAGTATACCGTTTATTAGCGGAGTCACCTAGTGCAG	13700 fluorescence intensity (a.u.)
ACAATAAACTGCGGATTCTTTCTTTCTCTTCCATTCTTACCGGAGTCACCTAGTGCAG	3660 fluorescence intensity (a.u.)
CTCCAATCAACTTGCATAGACTGGCTGGTGGGGCCACGGTCGGAGTCACCTAGTGCAG	31200 fluorescence intensity (a.u.)
ATTCTCACTAGTTCCAAAATCAATTAGCATGTGCGTTGATCGGAGTCACCTAGTGCAG	3410 fluorescence intensity (a.u.)
ACTGTCATAGAACCTTGATTGCACGGTTTGTGTGAGTTTACGGAGTCACCTAGTGCAG	5570 fluorescence intensity (a.u.)
AAGAGAGAAACAATTACAGTTAATTAGGGTTAATCAGAAGCGGAGTCACCTAGTGCAG	9810 fluorescence intensity (a.u.)
CGCAAATTAGTCCAAGATTATGGATGGGTTTTATTAATAGCGGAGTCACCTAGTGCAG	27500 fluorescence intensity (a.u.)
TTCCTAAATTGCCATGTGGTGCTCCTTCAAACACTTCTAACGGAGTCACCTAGTGCAG	5010 fluorescence intensity (a.u.)
AAAACTTAATTAGTGCCAGGTCATACAGATTCCAGATAATCGGAGTCACCTAGTGCAG	10600 fluorescence intensity (a.u.)
ATGAAATCAAGGTTTTGCAAATTGAAATCCATGTTTTGGTCGGAGTCACCTAGTGCAG	8140 fluorescence intensity (a.u.)
TTCGTCGTCGTCCTCCTCAATCACATATTGGAGACAGCGACGGAGTCACCTAGTGCAG	3510 fluorescence intensity (a.u.)
TATGTAACTAATTAATATATGTATGCAGGCGCAACTCCTACGGAGTCACCTAGTGCAG	9920 fluorescence intensity (a.u.)
AAAACCTCCCGGTCAATCAAGCTATATATCTGTAATACACCGGAGTCACCTAGTGCAG	5280 fluorescence intensity (a.u.)
ACTCCATCTCCTTGCTGATTATGAATTCCAGCACCCTCATCGGAGTCACCTAGTGCAG	5520 fluorescence intensity (a.u.)
GTATATTCTGATTCAATTATAATTTCCCCATCGATCATTTCGGAGTCACCTAGTGCAG	9130 fluorescence intensity (a.u.)
TGTGCTGATTTGGCAAAGAACTAAAGCGAGGAGAGATACACGGAGTCACCTAGTGCAG	3360 fluorescence intensity (a.u.)
AACAGTAATCTAATTATCTAATCTGAACTCCGGGTAGTTCCGGAGTCACCTAGTGCAG	18200 fluorescence intensity (a.u.)
GTGGTTTAATAATTTGATCAAAATATCTGTAGTTCACGGACGGAGTCACCTAGTGCAG	9940 fluorescence intensity (a.u.)
